Screen size: about 310,000 compounds; about 2,200 (0.71%) showed an effect of 50% or more. The effect is printed as a negative number. This is one part of the list.
Target: human ether-à-go-go-related gene (hERG) potassium channel (human, UniProt Q12809)
Assay: primary screen, population patch clamp on CHO cells stably expressing hERG

Chain of human ether-à-go-go-related gene (hERG) potassium channel (Q12809 whole entry, looked up): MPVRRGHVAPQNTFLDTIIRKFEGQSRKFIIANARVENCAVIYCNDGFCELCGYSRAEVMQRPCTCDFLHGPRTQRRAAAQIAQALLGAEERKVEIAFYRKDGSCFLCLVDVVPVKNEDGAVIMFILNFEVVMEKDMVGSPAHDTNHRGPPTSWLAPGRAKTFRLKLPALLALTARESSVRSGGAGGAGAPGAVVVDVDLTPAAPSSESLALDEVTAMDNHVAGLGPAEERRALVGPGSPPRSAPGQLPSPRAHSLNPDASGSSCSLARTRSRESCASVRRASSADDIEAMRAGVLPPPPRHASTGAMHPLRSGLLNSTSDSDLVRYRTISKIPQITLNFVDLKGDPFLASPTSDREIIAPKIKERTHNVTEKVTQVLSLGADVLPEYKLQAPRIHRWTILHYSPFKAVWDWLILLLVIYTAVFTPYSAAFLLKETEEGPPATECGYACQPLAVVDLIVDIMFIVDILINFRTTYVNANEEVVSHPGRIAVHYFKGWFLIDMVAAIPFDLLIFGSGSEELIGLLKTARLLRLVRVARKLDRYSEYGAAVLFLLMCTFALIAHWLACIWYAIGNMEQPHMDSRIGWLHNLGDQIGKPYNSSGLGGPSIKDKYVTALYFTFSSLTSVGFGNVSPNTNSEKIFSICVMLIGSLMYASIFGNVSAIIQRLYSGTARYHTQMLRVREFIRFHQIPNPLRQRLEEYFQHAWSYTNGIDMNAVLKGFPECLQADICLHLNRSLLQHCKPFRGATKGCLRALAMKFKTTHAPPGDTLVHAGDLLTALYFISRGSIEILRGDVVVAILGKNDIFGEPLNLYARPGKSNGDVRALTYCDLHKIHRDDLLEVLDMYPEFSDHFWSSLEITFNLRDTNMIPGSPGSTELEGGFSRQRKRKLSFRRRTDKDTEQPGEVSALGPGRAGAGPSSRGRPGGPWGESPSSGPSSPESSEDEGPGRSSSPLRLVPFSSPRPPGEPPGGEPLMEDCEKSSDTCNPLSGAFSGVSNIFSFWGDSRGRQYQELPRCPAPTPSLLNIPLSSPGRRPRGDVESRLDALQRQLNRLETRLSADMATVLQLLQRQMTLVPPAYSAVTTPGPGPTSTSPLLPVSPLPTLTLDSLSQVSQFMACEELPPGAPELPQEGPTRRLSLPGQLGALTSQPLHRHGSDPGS

Structure (SMILES)	hERG current change (%, negative = inhibition) at 1uM [%]
CCCCC(=O)Nc1ncc([N+](=O)[O-])s1	1.72
O=[N+]([O-])c1cc(C(F)(F)F)ccc1Oc1cccnc1[N+](=O)[O-]	-7.56
C=CCOC(=O)C1=C[C@H](c2coc3ccccc3c2=O)C[C@H](OCc2ccc(CO)cc2)O1	-13.2
Cc1ccc(-c2c3c(=O)n(C)c(=O)n(C)c3cn2Cc2cccnc2)cc1	1.2
CCC(C)c1ccccc1NC(=O)C1CCCO1 (stereo not drawn)	13.2
COc1ccc(CC(=O)OCC(=O)c2ccc(OC)c(OC)c2)cc1	-0.414
CCOC(=O)C(NC(C)=O)C(=O)Nc1ccc(C(C)(C)C)cc1 (stereo not drawn)	6.96
CCOCCOC(=O)c1ccc(-n2cncn2)nc1	3.27
O=C1c2ccccc2C(=O)N1CCN1CCOCC1	12.3
O=C(OCCN1C(=O)c2ccccc2C1=O)c1ccccc1	2.43
Cc1ccc2c(CN(C)Cc3cccc(F)c3)cc(=O)oc2c1C	13.4
Cc1ccc(C(=O)NCCNC(=O)c2ccc(F)cc2)cn1	7.7
COc1ccc(NC(=O)C(=O)NCCC2CCCCN2S(=O)(=O)c2cccs2)cc1 (stereo not drawn)	10.8
COc1ccc(-c2csc3ncnc(N4CCN(c5ccccc5O)CC4)c23)cc1	13.4
COc1cnn(-c2ccccc2)c(=O)c1N(C)C	5.94
CCOc1ccc(N2C=Nc3ccc(OCC)cc3C2)cc1	-18.3
CS(=O)(=O)Nc1ccc(-c2ccc(/C=C3\SC(N)=NC3=O)o2)cc1	8.58
Oc1c(C(c2cccs2)N2CCOCC2)sc2ncnn12 (stereo not drawn)	10.2
CC(=O)c1ccc(NC(=O)C(C)OC(=O)COc2ccc(C#N)cc2)cc1 (stereo not drawn)	-0.605
Cn1c(SCC(=O)Nc2cccc(F)c2)nnc1-c1cc2ccccc2o1	10.5
CC(=O)c1ccc(NC(=O)CCCCCn2nnc3ccccc3c2=O)cc1	9.23
C=CCN(C(=O)CCC(=O)Nc1cc(C)on1)C(C(=O)NC1CCCC1)c1cccnc1 (stereo not drawn)	11.2
COCCNC(=O)C(C)N(c1ccc(OC)cc1)S(C)(=O)=O (stereo not drawn)	3.04

Structure (SMILES)	hERG current change (%, negative = inhibition) at 1uM [%]
Cc1nnc(SCC(=O)Nc2nc(-c3ccc(F)cc3)cs2)[nH]c1=O	8.8
O=C(CSc1nnc(-c2c[nH]c3ccccc23)o1)c1ccccc1	5.05
CC(Sc1nc2ccccc2c(=O)n1CC1CCCO1)C(=O)N(C)Cc1ccccc1 (stereo not drawn)	-16.1
CN(C(=O)c1ccco1)c1nc(-c2ccc(Cl)cc2)cs1	7.02
COC(=O)C1=C(C)N(Cc2ccccc2)C(=NCCCCO)N[C@H]1c1ccccc1	1.53
N#Cc1nc(COc2cccc(Cl)c2)oc1N1CCCC1	10.3
COc1cc(CN2CCCCCC2)cc(OC)c1	12.5
O=c1c2cc(NC(=S)N3CCCCCC3)ccc2nc2n1CCCCC2	0.0359
CCOC(=O)c1ccc2[nH]c(C)c(CCC(C)=O)c(=O)c2c1	7.58
CCc1cccc(NC(=O)C2CCCN(S(=O)(=O)c3cccs3)C2)c1 (stereo not drawn)	7.86
Cc1ccc(N2CC(NC(=O)C(=O)c3c(C)[nH]c4ccccc34)CC2=O)cc1C (stereo not drawn)	7.65
Fc1ccc(Cl)cc1/C=N/n1cnnc1SCc1ccccc1	16.1
O=C(O)/C(=C\c1ccco1)NC(=O)c1ccco1	13.9
Cc1ccc(S(=O)(=O)NC(N)=NCCc2ccc(Cl)cc2)cc1	13.3
COC(=O)c1sc(NC(=O)CSc2n[nH]c(N)n2)c(C(=O)OC)c1C	10.5
CCCCCCNC(=O)N[C@H](Cc1ccc(O)cc1)C(=O)NCCC[C@H]1CN2C(=NC[C@H]2CCC)N1CC1CCC1	15.3
S=C(Nc1ccc(Oc2ccccc2)cc1)NC1CCCC1	9.65
O=C1NCCN1CCNS(=O)(=O)c1ccc(F)cc1	9.41
CCN(C(=O)C(=O)c1c[nH]c2ccccc12)c1ccccc1	12.1
CC(=O)Nc1ccc(S(=O)(=O)NCC(=O)OCC(=O)c2cc(C)n(-c3ccc4c(c3)OCO4)c2C)cc1	5.91
CC(=O)OCC1=C[C@@H]2OC(=O)C3=CO[C@@H](O[C@@H]4O[C@H](CO)[C@@H](O)[C@H](O)[C@H]4O)[C@H]1[C@@H]32	12.9
COc1ccc(-c2nnc(NC(=O)CSc3ccc(Cl)cc3)s2)cc1OC	2.61

Reference: article PMC4336329 (PLoS ONE, 2015)
